The whole screen tested about 46,000 compounds, of which about 60 (0.1%) were called active. Another 3% or so got no clear call; they are omitted. Calls come from the whole dose curve; as a rule, active = well fitted inhibition curve with a large enough effect; inconclusive = small, poorly fitted or top-dose-only effect; inactive = no such curve, though single readings can be large or run the other way. This is one part of the list.

The nature of this experiment: Primary qHTS assay for Inhibitors of ovarian cancer metastasis using an organotypic tumor microenvironment (TME) model.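 For activity change, negative = inhibition: plate controls were DMSO wells for no effect and tomatine positive control wells for full effect.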 Note: nearly all actives have a fitted effect of over 65% in size. The following applies: SKOV3ip1-GFP adhesion/invasion on 3D omental model, fluorescence; series mostly up to 45.8 µM; activity change, negative = inhibition: at the top concentration. The method in brief: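 Primary human omental fibroblast/mesothelial 3D culture pre-formed 48 h. SKOV3ip1-GFP cells added with compounds (0.36-46 umol/L), incubated 2 h RT/16 h 37 C, fixed; GFP cells quantified at 488/509 nm.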
(In qHTS, concentration-response curves come from the screen itself.)
For the molecule `CCCSc1nc(-c2ccc(OC)cc2)cc(-c2ccccc2OC)c1C#N`, the “activity change, negative = inhibition” value is inactive: 16.4%.
On the same count and under the same terms, the value for `COc1ccc(Br)cc1CNC(=O)c1cc(=O)[nH]c2ccc(S(=O)(=O)N3CCCCC3)cc12` was inactive: 8.27%; that for `Cc1cccc(C)c1NC(=O)CN(Cc1ccc(Br)cc1)S(=O)(=O)c1ccccc1` was inactive: -9.41%.
As to `CCOC(=O)c1ccc(NS(=O)(=O)c2ccc3c(c2)OCCO3)cc1`, the molecule was called inactive.
Regarding `Cc1ccc(CNc2ncnc3c2c(-c2ccccc2)cn3-c2ccccc2)cc1`, the “activity change, negative = inhibition” value is inactive: 3.08%.
`CCCC(=O)Nc1cccc(-c2cn3cccnc3n2)c1`: the molecule was called inactive.
Turning to `CN(C)[C@@H](CCOc1cccc2ccccc12)c1ccccc1`, the “activity change, negative = inhibition” value is inactive: 4.25%.
On the same count and under the same terms, the value for `CCOc1ccc(NC(=O)C2CCN(S(=O)(=O)c3c(C)noc3/C=C/c3c(C)cc(C)cc3C)CC2)cc1` was inactive: 10.9%.
Take `CCN(CC)c1ccc(NC(=O)c2sc3ccccc3c2Cl)cc1`: the “activity change, negative = inhibition” value is inactive: -2.82%.
On to `COc1ccc(OC)c(-c2noc(N3CCN(c4cc(C)ccc4C)CC3)n2)c1`, for which the “activity change, negative = inhibition” value is inactive: -6.01%.
`COc1ccc(OC)c(CCNC(=O)Cn2ccc3cc(S(=O)(=O)N4CCCCC4)ccc32)c1`: the “activity change, negative = inhibition” value was inactive: 8.21%.
Same read-out and setting: the value for `CCCC(CCC)C(=O)O` was inactive: 16.4%.
As for `CN(C)CCCC1(c2ccc(F)cc2)OCc2cc(C#N)ccc21` (centres undefined), the “activity change, negative = inhibition” value was inactive: 11%.
Turning to `CCOC(=O)Cc1ccc(NC(=O)Nc2cc3c(cc2N2CCCCC2)n(C)c(=O)n3C)cc1`, the call was inactive.
As to `COc1ccc(NC(=O)C(Cc2ccccc2)NS(=O)(=O)c2ccc3c(c2)CCN3C(C)=O)cc1` (centres undefined), the “activity change, negative = inhibition” value is inactive: 9.08%.
Turning to `CCOC(=O)c1cc(OC(=O)c2ccc(OC)cc2)n(-c2ccccc2)n1`, the “activity change, negative = inhibition” value is inactive: -5.24%.
On to `Cc1ccc(N(C)S(=O)(=O)c2nnc(NC(=O)CC(C)C)s2)cc1`, for which the “activity change, negative = inhibition” value was inactive: -14.3%.
Regarding `Cc1ccc(C)c(CNC(=O)c2ccc3c(c2)nc2n3CCC(C)C2)c1` (centres undefined), the molecule was classed as inactive.
For the molecule `CCCn1c(=N)c(C(=O)NCc2cccnc2)cc2c(=O)n3ccccc3nc21`, the call was inactive.
In the case of `COCCCNC(=O)C1CCC(CNS(=O)(=O)c2ccc(OC)cc2)CC1` (centres undefined), the call was inactive.
`CCCCOC(=O)c1ccc(NC(=O)CC2NCCNC2=O)cc1` (centres undefined): the molecule was called inactive.
`CCOc1ccc(CNC(=O)Cn2ccc3cc(S(=O)(=O)N4CCCCCC4)ccc32)cc1`: the “activity change, negative = inhibition” value was inactive: 5.44%.
Regarding `COc1ccc(-n2cc(C(=O)Nc3cc(F)ccc3F)c3ccccc3c2=O)cc1`, the “activity change, negative = inhibition” value was inactive: -4.91%.
Consider `O=C(Nc1ccc(F)cc1F)c1ccc2c(c1)CCN2S(=O)(=O)c1ccc(Cl)cc1`, for which the “activity change, negative = inhibition” value is inactive: 2.94%.
The same measure, in the same setting: the value for `CCOC(=O)c1cc2c(=O)n3ccccc3nc2n(C)c1=NC(=O)c1c(-c2ccccc2Cl)noc1C` was inactive: 0.974%; that for `Cc1ccc(NC(=O)Cn2c(=O)ccc3cc(S(=O)(=O)N4CCC(C)CC4)ccc32)c(C)c1` was inactive: 8.48%; that for `COc1cc(-c2cc3n(C)c(C)c(CCC(=O)NCc4ccccc4)c(=O)n3n2)cc(OC)c1OC` was inactive: -4.9%.
On the same count and under the same terms, the value for `COc1ccc2oc(=O)c(C(=O)Nc3cccc(C(=O)O)c3)cc2c1` was inactive: 5.96%; that for `COc1cccc(CNC(=O)C2CCN(Cc3cc4ccccc4n3Cc3ccc(C)cc3)CC2)c1` was inactive: -8.55%.
As to `CCOC(=O)c1ccc(NC(=O)c2nc(SC(C)C)ncc2Cl)cc1`, the outcome was inactive.
As for `COc1ccc(NC(=O)CC2C(=O)N(c3ccccc3)C(=O)N2C2CCCCC2)cc1` (centres undefined), the “activity change, negative = inhibition” value was inactive: 60.3%.
Consider `O=C(Cn1cnc2onc(-c3ccc(F)cc3)c2c1=O)Nc1cccc(C(F)(F)F)c1`, for which the molecule was called inactive.
In the case of `CS(=O)(=O)N(CC(=O)NCCSCc1ccccc1)c1cc(C(F)(F)F)ccc1Cl`, the molecule was called inactive.
Take `COc1ccccc1CNC(=O)c1cc2cccc3c2n1CC(C)S3` (centres undefined): the “activity change, negative = inhibition” value was inactive: -12.1%.
`CCOC(=O)c1nnn(CC(=O)Nc2cc(C)cc(C)c2)c1C(=O)OCC`: the “activity change, negative = inhibition” value is inactive: 3.5%.
Take `COc1ccc(CCNS(=O)(=O)c2ccc(N3CCCCS3(=O)=O)cc2)cc1OC`: the “activity change, negative = inhibition” value was inactive: 4.12%.
On to `Cc1nc2c(-c3ccccc3)c(C)nn2c(C)c1CCC(=O)NCc1ccc(Cl)cc1`, for which the “activity change, negative = inhibition” value is inactive: -3.56%.
On to `Cc1ccc(CNC(=O)CCCN2C(=O)CCn3nc(-c4cn(C)c5ccccc45)cc32)cc1`, for which the “activity change, negative = inhibition” value is inactive: 3.31%.
For `Cc1ccc(Cn2c(CCCNC(=O)c3ccco3)nc3ccccc32)cc1`, the “activity change, negative = inhibition” value is inactive: 9.9%.
Regarding `CCc1ccc(NC(=O)N2c3ccccc3Sc3ccccc32)cc1`, the “activity change, negative = inhibition” value is inactive: -5.01%.
In the case of `CCN(Cc1ccccc1)S(=O)(=O)c1ccc2c(c1)CCCN2C(C)=O`, the “activity change, negative = inhibition” value was inactive: 1.1%.
Regarding `Cc1ccc(C)c(Cn2cnc3c(cnn3-c3ccc(F)cc3)c2=O)c1`, the “activity change, negative = inhibition” value is inactive: 14.6%.
Regarding `Cc1ccc(-c2c(C(=O)NCc3ccc(F)cc3)oc(=O)c3ccccc23)cc1`, the “activity change, negative = inhibition” value is inactive: 56.5%.
Same read-out and setting: the value for `CC1CCN(C(=O)CN2c3ccc(C(C)C)cc3-c3ccccc3S2(=O)=O)CC1` was inactive: -14.3%.
As for `Cc1cc(-c2ccccc2)n2nc(-c3cccc(Br)c3)cc2n1`, the “activity change, negative = inhibition” value is inactive: -8.08%.
As for `COc1ccc(CCCc2nnc(SCC(=O)Nc3ccc(F)cc3)o2)cc1C`, the call was inactive.
For `CSCCC(NS(=O)(=O)c1ccc2c(c1)oc(=O)n2C)C(=O)NCc1ccccc1` (centres undefined), the result was inactive.
For `Cc1ccc2cccc(NC(=O)c3ccc(-c4cccc(Cl)c4Cl)o3)c2n1`, the “activity change, negative = inhibition” value is inactive: 12.1%.
Consider `Cc1ccccc1NC(=O)Cn1c(=O)n(Cc2ccc3c(c2)OCO3)c(=O)c2ccc(C(=O)NC3CCCCC3)cc21`, for which the “activity change, negative = inhibition” value is inactive: -1.31%.

These data come from PubChem BioAssay AID1963576 (National Center for Advancing Translational Sciences (NCATS), 2024).
